# Experimental data: PubChem BioAssay AID1508642 (National Center for Advancing Translational Sciences (NCATS), 2021)
# The whole screen tested about 43,000 compounds, of which about 200 (0.47%) were called active. Another 12% or so got no clear call; they are omitted. Calls follow the shape of the dose curve; as a rule, active = well fitted cell-killing curve with a large enough effect; inconclusive = small, poorly fitted or top-dose-only effect, or effect the other way; inactive = flat fitted curve, though single readings scatter. Some of the results follow.
# Test: Cell viability qHTS assay in S16 Pmp22-F2sN cells; also: nearly all actives have a fitted effect of over 65% in size
# Conditions: S16 Pmp22-F2sN Schwann cells viability, CellTiter-Glo, 24 h; series mostly up to 57.5 µM; activity change, negative = cytotoxicity: at the top concentration
# In short: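 Used to flag compounds lowering reporter output through toxicity, this quantitative HTS measures ATP-based CellTiter-Glo luminescence in S16 Pmp22-F2sN Schwann cells after 24 h compound exposure at 37C.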
# % is scaled to controls: 0 for no effect and ±100 for the full control effect.
row,SMILES,"activity change, negative = cytotoxicity"
1,CC(C)(C)c1ccc(C(=O)NC2=NC(c3cccc(F)c3)CC(=O)N2)cc1 (stereo unspecified),inactive: 15.2%
2,Cc1cc(C)c2oc(C(=O)NCCc3ccc(S(N)(=O)=O)cc3)cc(=O)c2c1,inactive: 9.01%
3,COc1ccc(Cl)cc1NC(=O)C(=O)NCc1ccc(Cl)cc1,inactive: -9.24%
4,COc1ccc2c(c1)c1c(c(=O)n(Cc3ccccc3)c(=O)n1CC(=O)Nc1ccccc1F)n2C,inactive: 3.95%
5,CCOC(=O)c1cnc(NCc2ccc(OC)cc2OC)c2ccccc12,inactive: 0.265%
6,CCOc1ccccc1NC(=O)N1CC(C)Oc2ccc(Cl)cc21 (stereo unspecified),inactive: -10.7%
7,Cc1ccc(OC(=O)CSc2nnc(-c3ccc4c(c3)OCO4)o2)c(C)c1,inactive: 9.34%
8,Cc1cccn2c(=O)cc(COc3ccc(NC(=O)COc4ccc(F)cc4)cc3)nc12,inactive: 5.76%
9,COc1cccc(NC(=O)CN2C=NS(=O)(=O)c3ccccc32)c1,inactive: 2.68%
10,Cc1ccc(C(=O)c2sc(Nc3ccc(F)cc3)c(C#N)c2N)cc1,inactive: -7.96%
11,COc1cccc(-c2nc3c(c(SCC(=O)Nc4cccc(C)c4C)n2)Cc2c(CO)cnc(C)c2O3)c1,inactive: 4.08%
12,Cc1cccc(CCn2c(=O)c3ccccc3n(Cc3ccccc3C)c2=O)c1,inactive: 7.61%
13,CCCCNC(=O)c1ccc2c(c1)NC(=O)C(C(C)C)N2 (stereo unspecified),inactive: 16.1%
14,COc1ccc2c(c1)c1c(c(=O)n(-c3ccc(F)c(Cl)c3)c(=O)n1Cc1ccccc1F)n2C,inactive: -21.3%
15,CCOC(=O)C1=C(CN(CC)Cc2ccccc2)NC(=O)NC1c1ccc(OC)cc1 (stereo unspecified),inactive: 7.94%
16,N#Cc1c(-n2ncnc2-c2cccc(Cl)c2)sc2c1CCCCC2,inactive: 4.05%
17,CCOc1cccc(-c2nc3ccccc3c(=O)o2)c1,inactive: -21.8%
18,COc1ccccc1NC(=O)C(=O)c1cc(C)n(-c2cc(C)cc(C)c2)c1C,inactive: 1.43%
19,Nc1nc(N)c(S(=O)(=O)c2ccccc2)c(Nc2ccccc2)n1,inactive: -1.97%
20,COc1cccc(C2C(=O)N(C3CCCCC3)CC(=O)N2CCc2ccc(OC)c(OC)c2)c1 (stereo unspecified),inactive: 9.54%
21,CCc1ccc(-n2c(=O)c3sc4ccccc4c3n(CC(=O)NC3CCCC3)c2=O)cc1,inactive: 6.49%
22,COc1cc(OC)c(NC(=O)CCc2nc(C3=CCN(Cc4cccc(Cl)c4)CC3)no2)cc1Cl,inactive: 21.2%
23,Cc1nc2nc(CNC(=O)OC(C)(C)C)nn2c(C)c1CCC(=O)NCc1ccccc1Cl,inactive: -7.14%
24,Cc1ccc(NC(=O)c2oc3ccccc3c2NC(=O)C2CCCCC2)cc1,inactive: -0.959%

row,SMILES,"activity change, negative = cytotoxicity"
1,CCc1ccc2c(c1)c(=O)c(S(=O)(=O)c1ccc(F)cc1)cn2CC(=O)Nc1ccccc1OC,inactive: 1.61%
2,CCOC(=O)C1CCN(C(=O)c2ccc(C)c(NC(=O)c3nsc4ccccc34)c2)CC1,inactive: 4.22%
3,CCC(=O)N1c2ccc(S(=O)(=O)CCC(=O)NCc3ccc(OC)cc3)cc2CC1C (stereo unspecified),inactive: 6.58%
4,Cc1ccc(NC(=O)C2CCC(CNS(=O)(=O)c3cccs3)CC2)cc1C (stereo unspecified),inactive: 7.84%
5,COc1ccc(NC(=O)COCc2cc(-c3ccco3)on2)cc1Cl,inactive: 0.239%
6,O=C(Nc1ccc(F)c(F)c1)c1ccc(=O)n(Cc2ccc(F)cc2)c1,inactive: -13.2%
7,CC1=C(C(=O)Nc2cc(C)cc(C)c2)C2(CCCCC2)OC1=O,inactive: 8.58%
8,CC(C)c1ccc(S(=O)(=O)NCc2nc3cccnc3n2Cc2ccc(F)cc2)cc1,inactive: 0.315%
9,CCc1cccc(C)c1Nc1c(-c2cccs2)nc2ncccn12,inactive: -0.336%
10,O=S(=O)(Nc1ccc(OC(F)(F)F)cc1)c1ccc(N2CCCCS2(=O)=O)cc1,inactive: -11.8%
11,O=C(Cn1c(=O)c2ccccc2n(CC(=O)Nc2ccccc2F)c1=O)NCCc1ccccc1,inactive: 0.0785%
12,COC(=O)c1ccc(NC(=O)c2c(-c3ccccc3)c(-c3ccccc3)nn(C)c2=O)cc1,inactive: 17%
13,CCOC(=O)Cc1ccc(NC(=O)Nc2nnc(N3CCCCC3C)s2)cc1 (stereo unspecified),inactive: -2.51%
14,CCc1ccc(Nc2nc(-c3cc4cccc(OC)c4oc3=O)c(CC)s2)cc1,inactive: -25.4%
15,CCCN(C(=O)c1cc2c(s1)-c1ccccc1OC2)c1ccc(C(C)C)cc1,inactive: 21.1%
16,Cc1cccc(OC(=O)c2snnc2C)c1C,inactive: -1.24%
17,CCC(=O)N1CCc2cc(Br)cc(S(=O)(=O)NCCc3ccc(C)cc3)c21,inactive: 1.8%
18,CCOc1ccc(-c2cc3nc(C4CCN(C(=O)OC(C)(C)C)CC4)c(C(=O)Nc4cccc(C(F)(F)F)c4)cn3n2)cc1,inactive: 3.39%
19,COc1ccc(Br)cc1CNCc1c(C(=O)O)c(C)n(Cc2ccccc2C)c1C,inactive: -5.23%
20,COc1ccc(-c2nc3scc(CCNS(=O)(=O)c4cccs4)n3n2)cc1,inactive: -29%
21,COc1cc(Cl)c(NS(=O)(=O)c2cc3[nH]c(=O)c(=O)[nH]c3cc2C)c(OC)c1,inactive: 11.3%
22,Cc1ccc(-n2c(=O)c3c4c(sc3n(CC(=O)C(C)(C)C)c2=O)CCCCC4)cc1C,inactive: 7.78%
23,Cc1cc2c(cc1S(=O)(=O)CCC(=O)N1CCN(c3ccccc3)CC1)OCC(=O)N2,inactive: 5.78%
24,CCCCCOC(=O)CSc1nc2sc3c(c2c(=O)n1Cc1ccccc1)CC(C)(CC)OC3 (stereo unspecified),inactive: 10.4%

row,SMILES,"activity change, negative = cytotoxicity"
1,Cc1c(Cl)cccc1-n1ncc(C(=O)NC2CCCC2)c1C1CCN(C(=O)OC(C)(C)C)CC1,inactive: 4.68%
2,Cc1ccc(NC(=O)N2CCN3CCCCC3C2)cc1C (stereo unspecified),inactive: 23%
3,CCOc1ccc(NC(=O)c2nn(C)c3c2COc2ccccc2-3)cc1,inactive: 3.31%
4,COc1ccc2c(c1)c1c(c(=O)n(-c3cc(Cl)ccc3C)c(=O)n1Cc1ccc(F)cc1)n2C,inactive: 11.7%
5,COc1ccc(-c2[nH]c(-c3ccc(C)cc3)nc2SCC(=O)NCC2CCCO2)cc1 (stereo unspecified),inactive: -1.44%
6,COc1cccc(NC(=O)CSc2nc(=O)[nH]c3c2CCCC3)c1,inactive: 13.5%
7,CCSc1ncc(Cl)c(C(=O)Nc2cc(C)ccc2C)n1,inactive: 15.2%
8,CC(=O)c1c(C)n(-c2cccc(Cl)c2)c2ccc(OC(=O)c3ccccc3)cc12,inactive: 3.69%
9,CCCOC(=O)c1c(-c2ccccc2)c(-c2ccccc2)nn(C)c1=O,inactive: 9.11%
10,Cc1cc(C)c(-c2n[nH]c3c2C(c2ccccc2F)N(CCO)C3=O)c(O)c1 (stereo unspecified),inactive: 1.7%
11,COC(=O)c1c(NC(=O)CS(=O)(=O)c2ccc(C)cc2)sc2c1CCCCC2,inactive: -0.341%
12,CCOc1cc2[nH]c(=O)n(CCC(=O)N3CCN(c4ccccc4)CC3)c(=O)c2cc1OCC,inactive: 1.27%
13,O=C(c1ccc(Cl)cc1)n1nc(-c2ccccc2)nc1NCc1ccco1,inactive: -3.75%
14,Cc1ccc2scc(N3CCCC(C)C3)c(=O)c2c1 (stereo unspecified),inactive: 18%
15,Cn1c(=O)n(C)c2cc(CNCc3ccccc3Cl)ccc21,inactive: 3.63%
16,CCc1cccc(NC(=O)CN2C(=O)COc3ccc(S(=O)(=O)N4CCC(C)CC4)cc32)c1,inactive: 1.96%
17,CC(=O)Nc1ccc(S(=O)(=O)NC2(C(F)(F)F)C(=O)Nc3c2c(=O)[nH]c(=O)n3-c2ccc(C)cc2)cc1 (stereo unspecified),inactive: -2.76%
18,CCOCCCNC(=O)C(c1ccc(OC)cc1)N(Cc1cccs1)C(=O)CNC(C)=O (stereo unspecified),inactive: -8.25%
19,Cc1ccc(C(=O)CC2(O)C(=O)N(CCc3ccccc3)c3ccc(Br)cc32)cc1 (stereo unspecified),inactive: 5.75%
20,Cc1ccc(Cn2c(C)c3cnn(CC(=O)N4CCN(c5cc(C)ccc5C)CC4)c(=O)c3c2C)cc1,inactive: -16.5%
21,COc1cccc(-n2c(C)nc3c(cnn3-c3ccc(C)c(C)c3)c2=O)c1,inactive: -0.728%
22,O=c1oc2ccc(Cl)cc2cc1-c1nc(-c2cccs2)no1,inactive: -0.497%
23,CCOC(=O)c1cc2c(=O)n3ccccc3nc2n(CCCOC)c1=NC(=O)c1cc2ccccc2o1,inactive: 2.75%
24,COc1ccc(NC(=O)Cn2c(=O)n(Cc3ccccc3Cl)c(=O)c3cc(OC)c(OC)cc32)cc1,inactive: 1.82%

row,SMILES,"activity change, negative = cytotoxicity"
1,Cc1ccc(N2CCn3c2nc2c3c(=O)n(Cc3cccc(Cl)c3)c(=O)n2C)cc1C,inactive: 2.32%
2,CC(C)c1ccc(NC(=O)CN2C(=O)C3(SCC(=O)N3c3ccc(F)cc3)c3ccccc32)cc1 (stereo unspecified),inactive: -26.4%
3,O=C(Nc1ccc(Cl)cc1)c1ccc2c(c1)N(Cc1ccccc1)CCS2,inactive: -5.33%
4,COc1ccc(NC(=O)Cn2c(=O)n(Cc3ccco3)c(=O)c3sc4ccccc4c32)cc1Cl,inactive: 21.6%
5,Cc1nc(CC(=O)Nc2ccc(C(N)=O)cc2)cs1,inactive: -2.01%
6,CCSC1=NC2(CCN(C(=O)NC3CCCCC3)CC2)N=C1c1ccc(OC)cc1,inactive: -17.5%
7,CCOc1ccccc1CNC(=O)CCc1cn(C)c2ccccc12,inactive: 4.73%
8,CC(C(=O)NCc1ccccc1)n1ccc2cc(S(=O)(=O)N3CCCC3)ccc21 (stereo unspecified),inactive: 5.81%
9,O=C(CN1C(=O)CCSc2ccc(S(=O)(=O)N3CCCC3)cc21)Nc1ccccc1Cl,inactive: 0.0251%
10,CCN(C(=O)CSc1nc2ccccc2nc1Cc1ccccc1OC)c1ccccc1,inactive: 3.12%
11,CCCC12CN3CC(CCC)(CN(C1)C3c1c[nH]c3ccc(OC)cc13)C2=O (stereo unspecified),inactive: 3.93%
12,CCCOc1ccc(CC2C(=O)Nc3ccc(Br)cc32)cc1 (stereo unspecified),inactive: 5.41%
13,Cc1ccc(C(=O)COC(=O)C(Cc2c[nH]c3ccccc23)NC(=O)c2ccc(Br)cc2)cc1 (stereo unspecified),inactive: 2.28%
14,Cc1nnc(N2CCC(C(=O)NCc3ccc(N(C)C)cc3)CC2)c2nn(-c3ccccc3)c(C)c12,inactive: -0.292%
15,CCc1nn(CC(=O)NCc2cccc(OC)c2OC)c(=O)c2cc3occc3n12,inactive: 14.2%
16,COc1ccc(OC)c(CNC(=O)Cn2nc(C)c3c(C)n(-c4ccccc4)nc3c2=O)c1,inactive: 3.64%
17,Cc1cc2oc(C(=O)Nc3cccc(-c4nc5ccccc5o4)c3)c(C)c2cc1Cl,inactive: 1.05%
18,O=C(Nc1ccc(Cl)cc1)c1ccc2c(c1)N(Cc1ccccc1)C(=O)c1ccccc1S2(=O)=O,inactive: -1.67%
19,CN(CC(=O)Nc1cccc(C#N)c1)S(=O)(=O)c1cc2c(cc1Cl)NC(=O)CO2,inactive: 2.51%
20,CCOc1ccccc1CNC(=O)CC(C)n1ccc(C)n1 (stereo unspecified),inactive: 4.92%
21,O=C(CSc1nc2ccccc2n1Cc1cccc(Cl)c1)N1CCN(c2ccc(F)cc2)CC1,inactive: 4.52%
22,CNC(=O)c1c(NC(=O)c2cc(=O)c3ccccc3o2)sc2c1CCC2,inactive: 6.3%
23,COc1ccc(-c2nc3ccccc3s2)cc1NC(=O)c1ccccc1OC,inactive: 13.6%
24,Cc1cccc(NC(=O)c2sc3cccc(Cl)c3c2Cl)c1,inactive: -10.5%
